Laboratory results as given in paper PMC4336329 (PLoS ONE, 2015).
About 2,200 (0.71%) of roughly 310,000 compounds showed an effect of 50% or more. Effects have a minus sign here. This is one part of the list.

Biological target: human ether-à-go-go-related gene (hERG) potassium channel (human, UniProt Q12809)
Assay: primary screen, population patch clamp on CHO cells stably expressing hERG

Chain of human ether-à-go-go-related gene (hERG) potassium channel (Q12809 whole entry, looked up): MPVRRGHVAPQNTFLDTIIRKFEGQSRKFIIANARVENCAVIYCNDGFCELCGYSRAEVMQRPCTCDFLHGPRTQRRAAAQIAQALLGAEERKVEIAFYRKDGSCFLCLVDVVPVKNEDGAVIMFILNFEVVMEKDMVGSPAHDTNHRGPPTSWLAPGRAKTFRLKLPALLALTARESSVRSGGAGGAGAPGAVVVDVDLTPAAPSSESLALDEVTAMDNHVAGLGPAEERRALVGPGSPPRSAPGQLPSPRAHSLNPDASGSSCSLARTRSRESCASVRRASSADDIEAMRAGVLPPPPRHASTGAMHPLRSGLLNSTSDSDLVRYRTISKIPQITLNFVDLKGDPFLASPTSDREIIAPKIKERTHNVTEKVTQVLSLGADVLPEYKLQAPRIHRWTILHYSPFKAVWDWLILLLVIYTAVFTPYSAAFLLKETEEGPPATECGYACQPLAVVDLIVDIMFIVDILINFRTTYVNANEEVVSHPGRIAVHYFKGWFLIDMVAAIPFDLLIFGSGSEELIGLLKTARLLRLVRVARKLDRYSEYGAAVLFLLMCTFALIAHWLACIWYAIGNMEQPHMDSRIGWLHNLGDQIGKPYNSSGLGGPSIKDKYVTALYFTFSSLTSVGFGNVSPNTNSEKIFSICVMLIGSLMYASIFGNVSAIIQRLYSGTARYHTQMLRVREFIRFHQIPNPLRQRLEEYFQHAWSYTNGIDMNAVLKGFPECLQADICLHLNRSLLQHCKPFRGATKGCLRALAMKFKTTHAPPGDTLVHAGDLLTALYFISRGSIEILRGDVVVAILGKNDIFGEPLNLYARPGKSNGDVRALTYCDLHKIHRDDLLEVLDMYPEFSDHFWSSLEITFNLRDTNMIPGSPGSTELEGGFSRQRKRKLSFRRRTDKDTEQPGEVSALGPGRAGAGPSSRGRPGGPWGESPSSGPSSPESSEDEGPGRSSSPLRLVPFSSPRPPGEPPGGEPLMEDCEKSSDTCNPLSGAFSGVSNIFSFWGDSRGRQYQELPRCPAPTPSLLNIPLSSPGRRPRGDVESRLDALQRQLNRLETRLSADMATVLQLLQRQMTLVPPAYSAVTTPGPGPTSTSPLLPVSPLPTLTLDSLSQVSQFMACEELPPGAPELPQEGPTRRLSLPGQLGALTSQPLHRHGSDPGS

Compound | hERG current change (%, negative = inhibition) at 1uM [%]
O=C1C2C3C=CC(CC3)C2C(=O)N1c1ccc(Br)cc1[N+](=O)[O-] (centres unmarked) | 12.4
Cc1ccc(OC(C)C(=O)Nc2ccccc2C(=O)NCc2cccnc2)cc1C (centres unmarked) | 13.3
c1ccc(-c2cn(C[C@H]3CC[C@H](Cn4cc(-c5ccccn5)nn4)O3)nn2)nc1 | 3.21
COc1ccc(NC(=O)Cn2nnc(-c3ccccc3NS(=O)(=O)c3ccccc3)n2)cc1 | 6.08
NC(=O)C(=O)N/N=C/c1c2ccccc2cc2ccccc12 | -4.48
COc1cc(OC)nc(/N=C/NO)n1 | 17.2
COc1ccc(NCN2C(=O)CCC2=O)cc1 | 5.32
Cc1cc(C)c2nc(NC(=O)c3cc(C)on3)sc2c1 | -0.226
CCN(CC)CC(O)COc1ccccc1C(=O)CCc1ccccc1 (centres unmarked) | 7.28
C/C(=N\NC(=O)CN(c1ccccc1Br)S(C)(=O)=O)c1cccs1 | 14.9
CCCC(=O)Nc1cnc(NC(=O)c2cccc(F)c2)cc1C | 6.68
C=CCn1c(O)c(N=NC(=S)Nc2ccccc2F)c2ccccc21 | 4.98
CCOc1cc(C(=O)NCCCn2ccnc2)cc(OCC)c1OCC | 4.75
O=C1N(c2ccccc2)C(c2ccccc2)N2CCCN12 (centres unmarked) | 14.1
O=C(O)CCCN=C1CCCc2ccccc2N1 | 0.516
CN(C)S(=O)(=O)c1ccc(S(=O)(=O)N2CCCC(C(=O)NC3CCCC3)C2)cc1 (centres unmarked) | 4.55
Cc1cc(C)cc(N(CC(=O)Nc2ccc(Br)cc2)S(=O)(=O)c2c(C)[nH]c(=O)[nH]c2=O)c1 | -11.5
O=C(CSc1nnc(-c2ccccc2F)o1)NC1CCCCC1 | 3.75
O=C(Cc1ccc(Cl)c(Cl)c1)Nc1ccc(SC(F)F)cc1 | 11.2
O=C(Cn1cnc2c(nnn2Cc2ccccc2)c1=O)N1CCN(c2ccccc2)CC1 | 0.418
O=S(=O)(c1cnc(Cl)c(Cl)c1)N1CCCc2ccccc21 | 6.46
CCn1c(SCC(=O)NCc2ccccc2)nnc1-c1ccccc1O | -5.21
C/C(=N\NC(=O)c1nnn(-c2nonc2N)c1CSc1ccc(Cl)cc1)c1ccco1 | 5.24

Compound | hERG current change (%, negative = inhibition) at 1uM [%]
Cc1cccc(C)c1NC(=O)C(NC(=O)c1ccccn1)c1ccc([N+](=O)[O-])cc1 (centres unmarked) | 16.3
Cc1ccc(C(C(=O)NC2CCCCC2)N(C(=O)c2csnn2)C2CC2)o1 (centres unmarked) | -39.3
COc1ccccc1NC(=O)CN1C(=O)COc2ccc(S(=O)(=O)N3CCC(C)CC3)cc21 | 13.6
Cc1ccc(-n2c(C)cc(/C=C3/SC(=O)N(CC(=O)N4CCOCC4)C3=O)c2C)nc1 | 10.3
CC(C)Cn1c(N)c(C(=O)CCl)c(=O)n(C)c1=O | 13
O=c1cc[nH]c2ccc(Cl)cc12 | 9.23
Cc1cc(N2CCN(C(=O)Nc3ccccc3C#N)CC2)c2ccccc2n1 | -44.5
O=C1N(Cc2ccc(F)cc2)CCN1c1ccc(F)cc1 | -23.3
NS(=O)(=O)c1ccc(CCNCC(=O)N2CCC(Cc3ccccc3)CC2)cc1.O=C(O)C(=O)O | 1.8
CC(=O)c1cccc(S(=O)(=O)NC(C)C2CC3CCC2C3)c1 (centres unmarked) | 1.98
CC1(CCl)CN1S(=O)(=O)c1ccccc1 (centres unmarked) | 10.7
Cc1cccc(-n2c(SCC(=O)O)nc3sc4c(c3c2=O)CCC4)c1 | 11.9
Cc1ccccc1C(=O)N1CCN(c2ccc(NC(=S)NC(=O)c3cccs3)cc2)CC1 | 8.14
O=C(COC(=O)/C=C/c1cccs1)Nc1nc(-c2ccccc2)cs1 | 10.9
O=C(CN1CCS(=O)(=O)CC1)N/N=C/c1cccc(C(F)(F)F)c1 | 4.18
CCOC(=O)Cn1c(C)c(Br)c(=O)c2cccc(C)c21 | 12.8
Cc1cc(-c2ccc(S(=O)(=O)N3CCc4ccccc4C3)s2)on1 | 14.4
O=C(CSc1nnc(-c2ccc(C(F)(F)F)cn2)s1)c1ccccc1 | 1.48
CC(C)(CO)Cc1cc(C(C)(C)C)c(O)c(C(C)(C)C)c1 | 6.72
CCOC(=O)N1CCN(CC(O)COC2CC(C)CCC2C(C)C)CC1.Cl (centres unmarked) | -3.48
CCCCNCCOCCOc1ccccc1-c1ccccc1.O=C(O)C(=O)O | -6.89
Cc1ccccc1C=Nc1ccccc1C(N)=O | 3.15
CCc1ccc(C2CC(c3ccccc3)Nc3nc(N)nn32)cc1 (centres unmarked) | 6.4

Compound | hERG current change (%, negative = inhibition) at 1uM [%]
CNS(=O)(=O)c1cn(CC(=O)N(C)Cc2ccccc2)cc1S(=O)(=O)NC | 0.305
CCOc1ccccc1N(C(=O)Nc1cccc(Cl)c1)C1=NC(C)CS1 (centres unmarked) | 11.4
Cc1cc2[nH]c(=O)c(=O)[nH]c2cc1S(=O)(=O)N1CCN(c2cccc(Cl)c2)CC1 | 13.5
Cn1cc(S(=O)(=O)N2CCCC2)cc1C(=O)Nc1cccc(C(F)(F)F)c1 | 13.3
Cc1ccc(OCc2nnc(SCc3cc(=O)[nH]c4ccccc34)n2-c2ccccc2)cc1 | -3.35
CCCC/C(O)=C1\C(=O)CC(C)(C)CC1=Nc1ccc(OC)cc1 | 14.8
CS(=O)(=O)c1ccc2nc(NC(=O)C3CCCCC3)sc2c1 | 6.47
COCc1cc(C)nc2sc(C(=O)N3CCN(c4ccccc4)CC3)c(N)c12 | 2.51
O=C(/C=C/c1cccs1)NCc1cccs1 | -2.1
COc1ccccc1CNC(=O)C1CCN(S(=O)(=O)c2cccc3nonc23)CC1 | 11.5
O=C(N/N=C\c1cccc(Cl)c1)c1ccc(Cn2cccn2)o1 | -27.5
Cn1c(-c2ccccc2)c(C(=O)CC#N)c2ccccc21 | 13
O=C(O)c1ccc(NCCc2ccc(Cl)cc2)c([N+](=O)[O-])c1 | 1.71
O=[N+]([O-])c1ccc(Sc2nccn2Cc2ccccc2)cc1 | -14.5
O=C(NCC1CCCO1)c1ccc2c3n(nc2c1)-c1ccccc1CO3 (centres unmarked) | 8.17
O=C(NCCO[N+](=O)[O-])c1cccnc1 | 10.9
CCCOc1ccc(C2C(C(=O)c3ccc(C)o3)=C(O)C(=O)N2Cc2ccco2)cc1 (centres unmarked) | 14
COc1ccc(-c2noc(CCC(=O)NCc3cc(Br)ccc3OC)n2)cc1 | 13.6
Cc1ccc(OCC(=O)N/N=C/C=C/c2ccco2)cc1C | 3.33
CCN1CCN(C(=O)/C(=C/c2ccco2)NC(=O)c2ccccc2)CC1 | -57.1
CC(=O)N1CCc2cc(Br)cc(S(=O)(=O)N3CCc4ccccc43)c21 | -1.76
NC(=S)NC1CCS(=O)(=O)C1 (centres unmarked) | 8.04
Cc1cccc(OCCCCCN2CCOCC2)c1 | 9.94

Compound | hERG current change (%, negative = inhibition) at 1uM [%]
COc1ccc(N2C(=O)N(Cc3ccc(C)cc3)c3ccccc3S2(=O)=O)cc1 | 9.52
O=C(COC(=O)CCc1c[nH]c2ccccc12)NCCc1ccccc1 | 16.9
CCOC(=O)c1cnc2ccc(OCC)cc2c1NCCCN1CCOCC1.Cl | -30.2
Cc1ccc(N2C(=O)CS/C2=C(\C(Cl)=C(Cl)Cl)[N+](=O)[O-])cc1 | 17.1
COc1ccc(NC(=S)NC(=O)Cc2ccccc2)cc1 | 14.4
Cc1ccccc1CS(=O)(=O)Cc1ccc(C(=O)NCCCN2CC(C)CC(C)C2)o1 (centres unmarked) | -0.544
Cc1nnc(N2CCC(C(=O)N3CCCCC3)CC2)c2nn(-c3ccc(Cl)cc3)c(C)c12 | -39.5
Cc1nn(-c2ccc(Cl)cc2)c(Cl)c1/C=C(\C#N)C(N)=O | 12.4
CCn1cc(C2=NOC(C(=O)Nc3cccc(C(C)=O)c3)C2)c(C)n1 (centres unmarked) | -0.851
CC(C)CCN(C)C1CCN(C(=O)Nc2c(F)cccc2F)CC1 | 11.7
O=C(O)C1CN(C(=O)c2ccccc2)c2cc(Cl)ccc2O1 (centres unmarked) | 15.8
CC(C)(C)NCCCCOc1ccccc1F | 12
CCOc1ccc(C(=O)N2CCCC(c3nc(-c4ccc(C)o4)no3)C2)cc1 (centres unmarked) | -14.4
COC(=O)[C@@]12CCCCN1[C@H](c1ccc(-c3ccc(C(C)=O)cc3)cc1)[C@@H]1C(=O)N(C)C(=O)[C@@H]12.O=C(O)C(F)(F)F | 13.3
[S-]C(=Nc1ccc(Cl)cc1)N[n+]1ccccc1 | 6.67
O=C(NCCCc1ccccc1)Nc1ccccc1 | 0.504
O=C(c1cc(O)c(O)c([N+](=O)[O-])c1)c1ccccc1F | 7.1
CSCCC(NS(=O)(=O)c1ccc(Cl)cc1)C(=O)OCc1c(Cl)cccc1Cl (centres unmarked) | 10.6
CC1CCCC(NC(=O)C2N(CCCN3CCCC3)C(=O)C3C(C(=O)Nc4cccc(Cl)c4)C4C=CC32O4)C1C (centres unmarked) | 13.7
Cc1cc(C)c2nc(NC(=O)[C@@H](NC(=O)c3cccc(S(=O)(=O)N4CCOCC4)c3)C(C)C)sc2c1 | 10.5
